# According to ChEMBL document CHEMBL4888484, “Replenishing the malaria drug discovery pipeline: Screening and hit evaluation of the MMV Hit Generation Library 1 (HGL1) against asexual blood stage Plasmodium falciparum ,using a nano luciferase reporter read-out” (2022):
# In all, about 150,000 compounds went through this assay and about 540 (0.36%) showed an effect of 50% or more. This is one part of the list.
# Tested on: Plasmodium falciparum
# Assay: Primary screen in NF54 nanoGlo assay, in single point, at 2uM, 72h; a lower Z score goes with more inhibition
# Format: functional, Erythrocyte
# Conditions: timepoint 72 hour
SMILES,% Inhibition [%],Z score
O=C(c1ccc(OCC(F)(F)F)nc1)N1CCC2(CC1)OCCO2,-46,5.44
CN1CC[C@H]2CC[C@@H](C1)N2c1nccc(C2CCCC2)n1,-16,1.5
CC(C)CC(=O)N1[C@H]2CC[C@@H]1c1cnc(-c3ccc(F)cc3)nc1C2,1,-0.08
Cc1ccc(OC(=O)Nc2ccc(Br)cc2Br)c(-n2nc3ccccc3n2)c1,1,-0.13
O=S1(=O)C[C@@H]2[C@H](C1)N(Cc1cccnc1)CCN2CC1CC1,-5,1.04
CN(C)c1nc(-c2cccc(C(=O)N[C@H]3COC[C@@H]3N3CCCC3)c2)nn1C,-10,1.94
Cc1ccc2c(c1)C[C@]1(CN2C)C(=O)N(c2cccc3ccccc23)C(=O)N=C1O,14,-1.7
OC(c1ccccc1)(c1ccccc1)[C@@H]1CCCCCN1,-16,2.4
Brc1cccc(C[C@H]2CCCN2)c1,15,-1.98
C[C@@H](Cn1cncn1)NCc1ccccn1,2,-0.16
Cc1noc(C)c1CN(C)[C@@H](C)Cc1cnccn1,-8,1.09
COc1ccc(S(=O)(=O)N2CC[C@@]3(C2)C(=O)N(C)c2ccc(OC)cc23)cc1,2,-0.22
CC[C@H](Oc1cc(C)c(Cl)c(C)c1)C(=O)N1CCC2(CC1)OCCO2,-5,0.5
NC(=O)c1cn(C2CN(CC3CCCCC3)C2)nn1,-4,0.75
CC(C)c1cc(C(=O)N2CC[C@H]3CC[C@@H](C2)N3C)nc2ncnn12,-19,2.59
Cn1cc(C(=O)N2C[C@H](O)[C@@H](F)C2)c2ccccc21,-13,1.21
Cc1cccc2c1c(-c1cccc(C(=O)N[C@H]3CN4CCC3CC4)c1)nn2C,13,-1.82
COc1ccccc1[C@H]1CN(C(=O)c2cc(=O)[nH]c(=O)[nH]2)[C@@H]2C3CCN(CC3)[C@H]12,-7,0.73
CCCOC[C@@H](N)Cc1cccc(Br)c1,-8,1.07
CN1CCC(N(C)c2ccccc2CN2CCC(C(C)(C)C)C(O)C2)CC1 (stereo not drawn),11,-1.58
CCC(CC)c1cc([C@H]2CN3CC[C@H]2C[C@@H]3CNC(=O)Cc2cccs2)nc(-c2ccncc2)n1,36,-0.74

SMILES,% Inhibition [%],Z score
CCCn1ncc(C(=O)N(Cc2ccc3c(c2)OCO3)C2CC2)c1C,-11,1.65
C[C@@H](C1CC1)N(C(=O)c1cn(C)c2ccccc12)C1CC1,10,-1.34
O=c1cc2c(n[nH]1)CCN(CCN1CC3CCC(C1)O3)C2,-5,0.97
CN[C@@H](C)Cc1noc(-c2cncc(-c3ccc4c(c3)CCO4)c2)n1,-26,3.72
Cc1nc(CN2CCC3CCC(C2)N3C)oc1C (stereo not drawn),-4,0.67
CCCN1CC[C@H]2CC(=O)Nc3cccnc3OCC[C@H]2C1,-12,1.93
CN(C)CC#CCNC(=O)Cc1ccc(F)cc1,-8,1.54
O=C1NC(=O)C2(Cc3ccccc3N3CCCC32)C(=O)N1c1ccc(F)cc1 (stereo not drawn),-8,0.98
COc1cccc([C@H]2CN(C)[C@@H]3C4CCN(CC4)[C@H]23)c1,-9,1.8
Cc1c(C(=O)NC[C@H]2CN3CCN2CC3)nnn1C,4,-0.84
Cc1cc(CN2CCCC23CCN(c2ncccn2)CC3)on1,2,-0.37
CC(C)NC(=O)N1C[C@@H]2C[C@H](C1)c1c(-c3ccccc3)ccc(=O)n1C2,-5,0.92
COc1ccc2c(c1)[C@@]1(CCN(S(=O)(=O)c3ccc(F)c(C)c3)C1)C(=O)N2C,5,-0.66
CN(C)CC#CCNC(=O)NCc1cccs1,-7,1.23
COc1ccncc1CNCc1ccccc1N(C)C1CCN(C)CC1,-6,0.7
CN1C(=O)C(C(=O)CCc2cc3ccccc3o2)C(=O)N(C)C1=O,-9,1.54
COCCO[C@H]1CCCN(C2CCC2)C1,-5,0.67
O=c1[nH]nc([C@H]2CCCN(c3ncnc4ccc(F)cc34)C2)o1,-5,0.39
Cn1c(NC(=O)C2CN3CCCN2CC3)nc2cccnc21 (stereo not drawn),4,-0.63
CC(C)n1nnc2cc(S(=O)(=O)N3CCC[C@H](C(=O)N4CCC5(CC4)OCCO5)C3)ccc21,-21,1.85
COc1cccc([C@H]2CN(c3nccs3)[C@@H]3C4CCN(CC4)[C@H]23)c1,-12,1.61

SMILES,% Inhibition [%],Z score
NCCc1ccccc1-c1ccc2c(c1)OCCO2,-4,0.57
CCCCn1nnnc1CN[C@@H](C)Cn1cccn1,-9,1.66
c1cnc(N2C[C@H](c3ccc4c(c3)OCO4)[C@@H]3[C@H]2C2CCN3CC2)nc1,-3,0.3
CN1C[C@H](c2ccc(F)cc2)C(C(=O)c2ccccc2)[C@]12C(=O)Nc1ccccc12 (stereo partly drawn),5,-0.72
COc1cccc(C[C@H](C)NC(=O)NCc2sc(C)nc2C)c1,-12,0.99
CN1CCCCCCN(Cc2ccccn2)[C@H]2CCC[C@H]2C1=O,10,-1.3
COc1ccccc1[C@@H]1CN(c2ncccn2)[C@@H]2C3CCN(CC3)[C@@H]21,1,-0.24
Cc1noc(C)c1CN1C[C@@H]2Oc3ncccc3S(=O)(=O)N[C@@H]2C1,-6,0.85
Cc1nc(-c2cc(F)cc(F)c2)c(N)c(N(C)C2CCN(C)CC2)n1,-9,1.38
Cc1noc2ncc(C(=O)N3CCC4(CC3)OCCO4)cc12,5,-0.82
O=c1[nH]c2ccc(S(=O)(=O)N3CCC[C@@H]3C(F)F)cc2o1,2,-0.21
Brc1cncc([C@@H]2CCCN2c2nccn3nnnc23)c1,-16,1.61
COc1ccc([C@@H]2CN(Cc3ccc(F)cc3)[C@@H]3C4CCN(CC4)[C@@H]32)cc1,2,-0.45
O=S(=O)(Nc1ccc2c(c1)CNCC2)c1cccc(Cl)c1,-1,0.16
CCc1nc(C)c(CN2CCC[C@H](C(=O)c3ccc(Cl)cc3)C2)[nH]1,-2,0.37
CC1CN(C(C)C)CC1NC(C)C(O)c1ccc(F)cc1 (stereo not drawn),-4,0.79
CC(C)N1C(=O)N=C(O)C2(Cc3ccccc3N3CCN(c4ccccc4)CC32)C1=O (stereo not drawn),9,-1.23
CN1CC2(CCN(C(=O)c3cnc(C4CC4)nc3)C2)C1,-9,1.7
O=C(NCC1CCN(C(=O)Oc2ccccc2)CC1)c1ccsc1,-5,0.75
O=c1oc2ccccc2n1CCNc1ccccc1Oc1ncc(Cl)cc1Cl,-6,0.91
O=C(Nc1ccccc1)N1C[C@@H]2C[C@H](C1)c1c(-c3cccnc3)ccc(=O)n1C2,-7,1.08

SMILES,% Inhibition [%],Z score
Cc1cccn2c(CN3CCOCC34CCC4)cnc12,4,-0.39
Cn1c(N2CCC[C@H]2c2cccnc2)nc2ccccc21,-3,0.52
O=C(C1CCCCC1)N1C[C@@H]2C[C@H](C1)c1c(-c3ccc(Cl)cc3)ccc(=O)n1C2,1,-0.14
CNc1nc(CN2C[C@@H]3[C@@H]4CC[C@@H](C4)[C@@H]3C2)cs1,-10,1.22
O=C1CCCN1C(=O)c1cncc(Br)c1,-8,1.04
COCCCNC1CCCCC1C(C)(C)C (stereo not drawn),-15,1.9
c1cncc(-c2noc(CN3CCC4CCCCC4C3)n2)c1 (stereo not drawn),-14,1.24
CO[C@H]1[C@@H]2CC[C@H]1CN(Cc1ccc(N(C)C)nc1)C2,0,0.04
O=C(Cc1cccc(F)c1)N1CCCCC[C@@H]1CN1CCCC1,2,-0.34
O=c1oc2c(Cl)cc(Br)cc2n1Cc1noc(-c2ccoc2)n1,0,-0.07
COc1ccc(CCNC2CCC(C)C2)cc1OC (stereo not drawn),6,-0.89
COc1ccc2c(c1)[C@@]1(CCN(S(=O)(=O)c3cc(F)cc(F)c3)C1)C(=O)N2C,-18,2.39
C[C@H](NCCc1c[nH]c2ccccc12)c1cccnc1,7,-0.95
CCC(=O)N1N=C(c2c(O)n(C)c(=O)n(C)c2=O)C[C@H]1c1ccc(OC)c(O)c1,-5,1
CCCN1CCN(c2cnn3cnnc3c2)CC1,-3,0.34
Cc1ccc(OCc2c(C(=O)NCc3ccccc3)c(=O)cc(C)n2CCN2CCOCC2)cc1,-6,0.94
Cc1ccc(C(=O)NCc2nc(=O)o[nH]2)c(Br)c1,-9,0.9
CC(C)Cn1[nH]c(CC(=O)N2C3CCC2c2ccccc23)cc1=O,10,-1.35
C[C@]12NC(=O)CN1CCc1ccccc12,0,-0.02
Cc1ccccc1C[C@H](C)N(C)C(=O)CN1CCCS1(=O)=O,-5,0.78
Cc1nc(-c2ccncc2)nc2c1CC(=O)N2CCN1CCOCC1,-13,1.83
